Experimental data published in the supplement of paper PMC3334620.
Whole data set: some 33,000 sequences, median “E-score (-0.5 to 0.5)” near -0.013, cut for the highest 2% near 0.3. The list shows a part of the results.

These sequences were tested against T1, Msn1 (UniProt P22148) (assay: PBM E-score (8-mer binding enrichment) (E-score (-0.5 to 0.5)); higher = stronger / more preferred TF binding; most listed sequences are background and not binding sites). Details: protein concentration: 200 nM; construct: GST-full length.
T1 sequence: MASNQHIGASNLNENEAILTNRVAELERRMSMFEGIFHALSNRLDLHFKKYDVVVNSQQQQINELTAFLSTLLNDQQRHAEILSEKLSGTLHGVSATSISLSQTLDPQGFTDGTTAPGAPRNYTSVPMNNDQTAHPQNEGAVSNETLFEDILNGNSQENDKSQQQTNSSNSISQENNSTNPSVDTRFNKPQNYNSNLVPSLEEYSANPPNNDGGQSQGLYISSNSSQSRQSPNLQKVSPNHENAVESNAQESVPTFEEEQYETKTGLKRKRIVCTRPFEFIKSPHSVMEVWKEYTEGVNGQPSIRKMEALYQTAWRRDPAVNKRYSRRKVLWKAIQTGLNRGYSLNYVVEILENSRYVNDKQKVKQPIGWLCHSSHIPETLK
In short: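 The E-score, a modified Wilcoxon-Mann-Whitney statistic, was computed by the Universal PBM Analysis Suite for every ungapped eight-base word pooled with its reverse complement. Scans behind it were normalised with masliner after bound GST-tagged yeast transcription factors were detected with fluorescent anti-GST. The proteins, at about 100-200 nM, had been applied to universal all-10-mer Agilent arrays made double-stranded by primer extension.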

Sequence | PBM E-score
GCCGGATA | 0.089
GGGTTTCA | -0.0088
GGTCCCGA | -0.0692
CGCGCTAC | 0.0224
AAACTTGG | 0.0927
ATAGCCTC | -0.0566
TGTCAACA | 0.131
ACTCGGTG | -0.0874
CAGACAAC | 0.212
ATGTAACC | -0.0865
CCTACTGA | -0.0568
ACACGGAG | 0.00035
CTCTTTCC | -0.158
ATAGGGAC | 0.274
AAAGCCTG | -0.146
GCGTTGCA | 0.116
GCCTCGAA | 0.0707
TAGGCCTA | -0.0564
ACTGGAGG | -0.213
AGATAGTG | -0.0237
GCTACCAA | -0.0555
GCCGCGCC | -0.021

Sequence | PBM E-score
ACTCTGGA | 0.0585
CTGAATTC | 0.0565
CCTAGAAG | -0.262
ATGTTCCA | 0.0473
AGGCTTCA | -0.253
GCCAAGCC | -0.132
CCACCACG | -0.138
AACCTCAC | -0.16
CCAGTCTC | -0.195
AATGTGAA | 0.0873
ACGGATTA | -0.0419
ACTGCGCT | -0.176
TCGTACCA | 0.176
ATATCATC | 0.123
CTAAACCA | -0.00916
GGCGATAC | -0.0673
TCGCAAAA | -0.0395
TCGCTCAA | 0.0545
TCGCGACA | 0.157
AAGCATGA | -0.0381
CTTACCGA | -0.0903
CCAGGGGA | -0.262

Sequence | PBM E-score
CTGGGATA | -0.0501
AATGATGA | 0.149
TCGTTTAA | 0.255
AGAATTTA | 0.0908
AGCCACCA | -0.162
ATATATAG | 0.219
TCTAATAA | -0.0049
ACGTATGC | -0.0244
ATTGAGGA | 0.0503
AAGGGTGG | -0.122
GTTCTTTA | 0.162
TAAGAACA | 0.249
ACACAGTG | -0.0386
GATCAACC | -0.178
ACCCTGAA | -0.0936
AGCAACGA | -0.0942
GTTCGCTA | -0.0408
ATTCATGC | -0.172
GGGGCACA | -0.101
GGCAAGAA | 0.12
GAGCAGGA | 0.187
GATACGCA | 0.11

Sequence | PBM E-score
CAACAAGG | 0.257
CTGTGCAC | -0.151
AAAAATGA | 0.143
AATGGGCA | -0.104
CAACTATC | -0.132
GCCACAGA | -0.234
CGAAACCG | 0.0338
GGTGGCAC | -0.0685
CTCCATCA | -0.181
GCCGTTAC | -0.051
CTCCTGTC | 0.0796
ATAAGGAG | -0.199
TCGCGAGA | 0.00891
AGCTACGG | -0.108
CCACCCAA | -0.21
GACGATGC | -0.0765
AATAACGG | 0.0528
GCAACACC | -0.112
AGTCAAGC | -0.285
ACGCGCCA | 0.00563
ATTTTTAA | 0.28
